Experimental data: PubChem BioAssay AID1645887 (National Center for Advancing Translational Sciences (NCATS), 2021)
Several values for one entry are separate records, joined by “and”; a condition that tells them apart may be missing. Equal entries are not always repeated. In all, about 16,000 compounds went through this assay and about 40 (0.2%) were called active. Inconclusive results (about 1%) are left out. Calls follow the shape of the dose curve; as a rule, active = well fitted activation curve with a large enough effect; inconclusive = small, poorly fitted or top-dose-only effect, or another doubt; inactive = no such curve, though single readings can be large or run the other way. This is one part of the list. Positions of bridges follow the written chain, without caps; N, C: chain ends. Non-standard residues stand in square brackets, D forms with d. Residues, ends and D or L forms follow the SMILES beside them. *: point of attachment. Dab(CH2SO3H) = N[C@@H](CCNCS(=O)(=O)O)C(=O)O; X8 = CC[C@@H](C)CCCCC(=O)*; Dab = NCC[C@H](N)C(=O)O

molecular target: Rap guanine nucleotide exchange factor 4 (Homo sapiens) (UniProt Q8WZA2); test: Validation qHTS for agonist of cAMP-regulated guanine nucleotide exchange factor 4 (EPAC2); details: EPAC2 Rap1B BODIPY-GDP exchange, fluorescence; activation: stronger effect = higher value;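 as to activation: exchange makes BODIPY-GDP fluorescence drop when released from Rap1B; series mostly up to about 150 µM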
Sequence of UniProt Q8WZA2 (Q8WZA2 whole entry, looked up): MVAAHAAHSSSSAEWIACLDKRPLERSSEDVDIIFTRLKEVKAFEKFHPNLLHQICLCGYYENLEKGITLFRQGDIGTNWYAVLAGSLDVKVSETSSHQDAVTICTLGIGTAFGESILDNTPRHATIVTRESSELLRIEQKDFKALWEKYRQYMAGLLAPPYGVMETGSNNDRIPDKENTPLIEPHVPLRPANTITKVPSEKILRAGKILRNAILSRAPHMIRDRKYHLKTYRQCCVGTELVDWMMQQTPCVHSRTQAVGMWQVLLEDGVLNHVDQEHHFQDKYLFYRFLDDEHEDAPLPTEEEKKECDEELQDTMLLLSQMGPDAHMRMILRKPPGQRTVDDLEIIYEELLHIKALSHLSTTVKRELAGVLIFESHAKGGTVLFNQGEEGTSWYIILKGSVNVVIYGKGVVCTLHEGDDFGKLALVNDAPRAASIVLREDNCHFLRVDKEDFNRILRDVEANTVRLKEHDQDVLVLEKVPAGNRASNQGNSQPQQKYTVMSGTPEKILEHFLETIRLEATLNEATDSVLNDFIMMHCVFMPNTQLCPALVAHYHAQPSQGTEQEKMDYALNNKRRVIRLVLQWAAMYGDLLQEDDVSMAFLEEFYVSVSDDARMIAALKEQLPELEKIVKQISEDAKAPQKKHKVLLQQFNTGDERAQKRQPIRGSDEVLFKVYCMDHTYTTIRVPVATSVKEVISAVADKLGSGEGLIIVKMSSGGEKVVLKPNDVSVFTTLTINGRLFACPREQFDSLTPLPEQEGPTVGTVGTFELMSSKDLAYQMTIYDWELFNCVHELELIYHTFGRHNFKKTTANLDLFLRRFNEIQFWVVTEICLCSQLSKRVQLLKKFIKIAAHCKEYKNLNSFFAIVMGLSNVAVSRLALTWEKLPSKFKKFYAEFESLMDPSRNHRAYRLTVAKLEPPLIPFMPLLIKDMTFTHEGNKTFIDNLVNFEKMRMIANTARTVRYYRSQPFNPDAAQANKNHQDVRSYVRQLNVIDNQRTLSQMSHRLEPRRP
Procedure, shortened: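 Fluorescent exchange assay: 100 nM EPAC2 with 250 nM RAP1B-BODIPY-GDP and 50 uM GDP; compound added, 5 min at room temperature, then read (ex 480/em 540 nm) every 5 min for 30 min. Normalized to 6.5 mM cAMP agonist control.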
% is scaled to controls: 0 for no effect and ±100 for the full control effect; potency is read from the fitted curve at half-maximal effect.

| Compound | activation | Potency |
| --- | --- | --- |
| CC(C)CC(N)C(=O)NC(C)C(=O)O (configuration not stated) | inactive: -9.34% |  |
| COC(=O)N1CCC2(CC1)CN(C(=O)Nc1cccc(F)c1)C2 | inactive: 5.39% |  |
| COc1cc([C@@H]2c3cc4c(cc3C(OC3OC5COC(C)OC5C(O)C3O)C3COC(=O)[C@@H]32)OCO4)cc(OC)c1O (some centres not stated) | inactive: 4% |  |
| CCN(CC)CCOC[C@H]1O[C@@H](O)[C@H](OCCN(CC)CC)[C@@H](O)[C@@H]1O | inactive: -1.9% |  |
| NCC1O[C@@H](OC2C(N)C[C@H](N)[C@@H](O[C@H]3OC(CO)C(O)C(N)C3O)C2O)C(O)C(O)C1O (some centres not stated) | inactive: -5.12% |  |
| COc1ccc(-c2nc3cc(F)ccc3cc2CN(C(=O)c2ccc3c(c2)OCO3)C2CC2)cc1 | inactive: -21.5% |  |
| COc1ccc(NC(=O)N2CC3(CCN(C(C)=O)CC3)C2)cc1 | inactive: -5.2% |  |
| CCCCCCCCCCOc1cc2c(=O)c(C(=O)OCC)c[nH]c2cc1OCC | inactive: 11.6% |  |
| CN(C)CC(C)(O)c1ccc2c(c1)CN(Cc1cccn1-c1cccnc1)CCO2 (configuration not stated) | inactive: -4.09% |  |
| COc1ccc(CN2CCOc3ccc(CN4CCC(Oc5cccnc5)CC4)cc3C2)cc1C | inactive: -9.72% |  |
| CCN(CC)C(=S)S | inactive: 9.79% |  |
| Cn1cc(CN2CCC(C3(c4ccccn4)NC(=O)N(CC4CCCO4)C3=O)CC2)c2ccccc21 (configuration not stated) | inactive: 4.94% |  |
| CCOC(=O)C[C@H]1c2cc(F)ccc2S(=O)(=O)N1Cc1ccc(OC)cc1 | inactive: -26.4% |  |
| COc1ccccc1CNc1ncnc2sc(C(=O)N3CCN(C)CC3)c(C)c12 | inactive: -5.84% |  |
| COCCNc1nc(-c2cccc(NS(C)(=O)=O)c2)nc2ccccc12 | inactive: -4.99% |  |
| COc1ccc2cnoc(=O)c2c1OC | inactive: -6.06% |  |
| O=C1CC[C@H](O)CCN1[C@H](CSc1ccc(Br)cc1)Cc1ccccc1 | inactive: -22.1% |  |
| CSC(=N)N | inactive: -2.14% and inactive: -15.7% |  |
| O=c1c(CCc2ccccc2)nc2cncnc2n1Cc1ccccc1Cl | inactive: -25.1% |  |
| CN(C)Cc1ccccc1-c1nc(N(C)Cc2ccco2)c2ccccc2n1 | inactive: -5.11% |  |
| CN(CCCN1c2ccccc2CCc2ccccc21)CC(=O)c1ccc(Cl)cc1 | inactive: 13.3% |  |

| Compound | activation | Potency |
| --- | --- | --- |
| CC(=O)[C@@]1(O)[C@H](O)CC2C3CCC4CC(O)CC[C@]4(C)C3CC[C@@]21C (some centres not stated) | inactive: -20.8% |  |
| O=C1CCN(Cc2cccnc2)CCN1[C@H](CO)c1ccccc1 | inactive: -1.15% |  |
| CN(C)c1cc(NC(=O)CNC(C)(C)C)c(O)c2c1C[C@@H]1C[C@H]3[C@H](N(C)C)C(=O)C(C(N)=O)=C(O)[C@@]3(O)C(=O)C1=C2O | inactive: -9.07% |  |
| CCCCCCCCCC[n+]1ccc(/C=C/c2c[nH]c3ccccc23)c2ccccc21 | inactive: -5.9% |  |
| COc1cc(/C=C\c2ccc(OC)cc2OC)cc(OC)c1 | inactive: -2.88% |  |
| O=C(Nc1cccc(F)c1)N1CC[C@@]2(CCCN(C(=O)c3ccco3)C2)C1 | inactive: -13% |  |
| Cc1cc(C(=O)NCC2CCC3(CCN(Cc4cc(F)ccc4F)CC3)O2)n(C)n1 (configuration not stated) | inactive: -2.93% |  |
| COc1cc2c(c(OC)c1OC)-c1ccc(OC)c(=O)cc1C(NC(C)=O)CC2 (configuration not stated) | inactive: -9.19% |  |
| N#Cc1ccc(CN2CCC3(CC2)CCN(S(=O)(=O)c2ccccc2)CC3)cc1 | inactive: 0.696% |  |
| COc1ccccc1N1CCN(c2nc(CNC(=O)c3ccc4c(c3)OCO4)nc3ccccc23)CC1 | inactive: -0.552% |  |
| COc1cc(C)c(C(=O)Oc2cc(C)c(C(=O)O)c(O)c2C)c(OC)c1C | inactive: -17.2% |  |
| O=C1NCC2(CCN(CCc3ccccc3)CC2)O1 | inactive: -0.785% and inactive: -5.15% |  |
| O=C(NC1CCN(Cc2ccccc2)C1)c1cnn(-c2ncc3c(n2)-c2ccccc2CC3)c1C1CC1 (configuration not stated) | inactive: -4.15% |  |
| Clc1ccc2c(c1)CCc1cccnc1C2=C1CCNCC1 | inactive: -8.09% and inactive: -1.94% |  |
| CCNc1ncc2ncc(=O)n(Cc3ccc(F)cc3)c2n1 | inactive: -6.85% |  |
| CC[C@@H](C)CCCCC(=O)N[C@@H](CCNCS(=O)(=O)O)C(=O)N[C@H](C(=O)N[C@@H](CCNCS(=O)(=O)O)C(=O)N[C@H]1CCNC(=O)[C@H]([C@@H](C)O)NC(=O)[C@H](CCNCS(=O)(=O)O)NC(=O)[C@H](CCNCS(=O)(=O)O)NC(=O)[C@H](CC(C)C)NC(=O)[C@@H](CC(C)C)NC(=O)[C@H](CCNCS(=O)(=O)O)NC1=O)[C@@H](C)O (X8-[Dab(CH2SO3H)]T[Dab(CH2SO3H)][Dab][Dab(CH2SO3H)][dL]L[Dab(CH2SO3H)][Dab(CH2SO3H)]T; lactam 4-C) | inactive: -10.2% |  |
| Cc1ncc2c(c1CNC(=O)c1ccccc1F)CCN(C(=O)c1ccccc1-n1cccn1)C2 | inactive: -26.7% |  |
| O=C(Cn1c(=O)sc2ccc(Cl)cc21)N1CCN(CCO)CC1 | inactive: -25.1% |  |
| O=C1NC(=O)c2cc(Nc3ccccc3)c(Nc3ccccc3)cc21 | inactive: -31.3% |  |
| CC1(C)OC[C@@H](COC(=O)CCc2ccc(OC[C@@H](O)CNCCNC(=O)N3CCOCC3)cc2)O1 | inactive: -11% |  |
| Cc1[nH]cnc1CN1CCc2c(c3ccccc3n2C)C1=O | inactive: -8.19% |  |

| Compound | activation | Potency |
| --- | --- | --- |
| Cc1ncc(COP(=O)(O)O)c(CN)c1O | inactive: -29.4% |  |
| O=C(O)C(O)C(O)(Cc1ccc(O)cc1)C(=O)O (configuration not stated) | inactive: -5.01% |  |
| CCC1(C2CCN(Cc3ccoc3)CC2)NC(=O)N(CC2COc3ccccc3O2)C1=O (configuration not stated) | inactive: -25.4% |  |
| Cc1ccc(SC[C@H](Cc2ccccc2)N2CC[C@@H](C(C)(C)C)CCC2=O)cc1 | inactive: -1.16% |  |
| O=C(c1cn(CC2CCCN(Cc3cc4ccccc4s3)C2)nn1)N1CCCC1 (configuration not stated) | inactive: 0.314% |  |
| N#CCCn1c(=O)c(-c2cccc(C#N)c2)nc2cnc(Oc3ccccc3)nc21 | inactive: -16% |  |
| O=C(C[n+]1cccc(Br)c1)c1ccc(F)cc1 | inactive: -17.1% |  |
| CCOC(=O)Cc1ccc(-c2ccccc2)cc1 | inactive: 3.25% |  |
| O=C(CCCCCN1CCN(c2ccccc2-c2ccccc2)CC1)NC1CCCc2ccccc21 (configuration not stated) | inactive: -11.3% |  |
| Cc1ccc(CN2C[C@H](Sc3ccccn3)C[C@H]2C(=O)Nc2ccc3sc(C)nc3c2)cc1 | inactive: -4% |  |
| CCNc1ncc2nc(CCc3ccccc3)c(=O)n(-c3ccccc3)c2n1 | inactive: -37.6% |  |
| Cc1cc2nc3c(=O)[nH]c(=O)nc-3n(C[C@H](O)[C@H](O)[C@H](O)CO)c2cc1C |  | active: 79.4 µM and active: 100 µM |
| CC1CCC(C(C)(C)O)CC2=C1CCC2C (configuration not stated) | inactive: -2.74% |  |
| c1cncc(CNc2ncncc2-c2ccc3c(c2)OCO3)c1 | inactive: -18.2% |  |
| CC(C)C(N)C(=O)OCCOCn1cnc2c(=O)[nH]c(N)nc21 (configuration not stated) | inactive: -19.4% |  |
| CC(C)NC[C@@H](O)COc1ccccc1-n1cccc1 | inactive: -22.1% |  |
| Cc1cnc(CNc2cc(-c3c(C)noc3C)ncn2)cn1 | inactive: -3.1% |  |
| CC(=O)N1CCC2(CCCN(C(=O)Nc3cccc(F)c3)C2)CC1 | inactive: -13.9% |  |
| COC(=O)[C@@H]1C[C@@H](NC(=O)c2cnsn2)CN1Cc1ccc(Cl)cc1 | inactive: 2.25% |  |
| O=C(c1csnn1)N1CCC2(CCCN(c3ccc(-c4ccccc4)cc3)C2)CC1 | inactive: 5.32% |  |
| COc1ccc(-n2c(=O)cnc3cnc(N4CCNCC4)nc32)cc1 | inactive: -13.1% |  |

| Compound | activation | Potency |
| --- | --- | --- |
| Cc1cc(C)c2cccnc2c1O | inactive: -21% |  |
| COc1cc2c(C=O)c3c4c(cc(OC)c(OC)c4c2cc1OC)CCN3C | inactive: 29.2% |  |
| CN1[C@@H]2CCC[C@@H]1CC(NC(=O)c1nn(C)c3ccccc13)C2 (some centres not stated) | inactive: -15.3% |  |
| COc1ccccc1-c1nccc(NCc2cccnc2)n1 | inactive: -10.8% |  |
| CN1CCN(c2cc(-c3ccc(N(C)C)cc3)ncn2)CC1 | inactive: -2.28% |  |
| CC1CCN(CC[C@H]2CCCN2S(=O)(=O)c2cccc(O)c2)CC1 | inactive: -6.12% and inactive: -29.8% |  |
| CC(=O)Nc1ccc(SC[C@H](Cc2ccccc2)N2CC[C@@H](C(C)(C)C)CCC2=O)cc1 | inactive: -25.1% |  |
| CC(=O)NCCNc1ccnc(-c2ccccc2C)n1 | inactive: -0.671% |  |
| COC(=O)C[C@H]1c2ccc(C(F)(F)F)cc2S(=O)(=O)N1Cc1ccccc1 | inactive: -7.96% |  |
| Cc1cnc(-n2ncc(C(=O)NC(C)(C)CO)c2-c2cccs2)nc1-c1ccc(F)cc1 | inactive: -14.8% |  |
| COc1ccc(SC[C@H](Cc2ccccc2)N2CC[C@@H](NC(=O)OCc3ccccc3)CCC2=O)cc1 | inactive: 1.78% |  |
| CCCCC(CC)COC(=O)CC(C(=O)OCC(CC)CCCC)S(=O)(=O)O (configuration not stated) | inactive: -62.8% and inactive: -63% |  |
| Cc1noc(C)c1-c1cc(NC2CC2)ncn1 | inactive: -10.6% |  |
| O=C(NCc1ccncc1)c1cnn(-c2nccc(-c3cccs3)n2)c1C1CC1 | inactive: -7.47% |  |
| Oc1ccc2c(c1)OCC1c3cc4c(cc3OC21)OCO4 (configuration not stated) | inactive: -9.87% |  |
| COc1ccc(C)cc1N1C(=O)[C@@H]2C[C@H]1CN2Cc1cccc(OC)c1O | inactive: -11% |  |
| Cc1cc2c(cc1C)N[C@]1(C[C@H]3CCCC(=O)N4CC[C@@H](C1)[C@@H]34)C(=NCc1ccccc1)N2 | inactive: -29.6% |  |
| c1ccc2cc(C3=NCCN3)ccc2c1 | inactive: 7.5% |  |
| C#CCN(Cc1ccc(OC)cc1)S(=O)(=O)C=C | inactive: -9.61% |  |
